Some of the results follow.
Experiments:
Test in all cases: glycan array binding signal (z-score within array); higher = stronger binding
Conditions in all cases: glycan notation: IUPAC condensed, linker removed
[1] = molecular target: Fuc(a1-3)[Gal3S(b1-4)]GlcNAc
How it was run: (§1)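 Glycan array binding is given as a within-array Z-score, which can be read as non-binding when negative. The arrays, 3228 of them, came from the Consortium for Functional Glycomics database and were retained only where the protein sequence was available. Z-scores were averaged across arrays of the same protein sequence at different concentrations or buffers and across linkers.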

[2] = molecular target: Fuc(a1-3)[Gal3S(b1-4)]GlcNAc6S
How it was run: as §1

[3] = molecular target: Fuc(a1-3)[GalNAc(b1-4)]GlcNAc
How it was run: as §1

[4] = molecular target: Fuc(a1-3)[GalNAc(b1-4)]GlcNAc6S
How it was run: as §1

Fuc(a1-4)GlcNAc = molecular target: Fuc(a1-4)GlcNAc
How it was run: as §1

Fuc(b1-3)GlcNAc = molecular target: Fuc(b1-3)GlcNAc
How it was run: as §1

Gal(a1-2)Gal = molecular target: Gal(a1-2)Gal
How it was run: as §1

Gal(a1-3)Gal = molecular target: Gal(a1-3)Gal
How it was run: as §1

Gal(a1-3)Gal(b1-3)GlcNAc = molecular target: Gal(a1-3)Gal(b1-3)GlcNAc
How it was run: as §1

[5] = molecular target: Gal(a1-3)Gal(b1-3)GlcNAc(b1-2)Man
How it was run: as §1

[6] = molecular target: Gal(a1-3)Gal(b1-3)GlcNAc(b1-2)Man(a1-3)[Gal(a1-3)Gal(b1-3)GlcNAc(b1-2)Man(a1-6)]Man(b1-4)GlcNAc(b1-4)GlcNAc
How it was run: as §1

[7] = molecular target: Gal(a1-3)Gal(b1-3)GlcNAc(b1-3)GalNAc
How it was run: as §1

[8] = molecular target: Gal(a1-3)Gal(b1-3)GlcNAc(b1-6)GalNAc
How it was run: as §1

[9] = molecular target: Gal(a1-3)Gal(b1-3)[Fuc(a1-4)]GlcNAc(b1-2)Man(a1-3)[Gal(a1-3)Gal(b1-3)[Fuc(a1-4)]GlcNAc(b1-2)Man(a1-6)]Man(b1-4)GlcNAc(b1-4)GlcNAc
How it was run: as §1

Gal(a1-3)Gal(b1-4)Glc = molecular target: Gal(a1-3)Gal(b1-4)Glc
How it was run: as §1

Gal(a1-3)Gal(b1-4)GlcNAc = molecular target: Gal(a1-3)Gal(b1-4)GlcNAc
How it was run: as §1

[10] = molecular target: Gal(a1-3)Gal(b1-4)GlcNAc(b1-2)Man
How it was run: as §1

[11] = molecular target: Gal(a1-3)Gal(b1-4)GlcNAc(b1-2)Man(a1-3)[Gal(a1-3)Gal(b1-4)GlcNAc(b1-2)Man(a1-6)]Man(b1-4)GlcNAc(b1-4)GlcNAc
How it was run: as §1

[12] = molecular target: Gal(a1-3)Gal(b1-4)GlcNAc(b1-3)GalNAc
How it was run: as §1

[13] = molecular target: Gal(a1-3)Gal(b1-4)GlcNAc(b1-6)GalNAc
How it was run: as §1

[14] = molecular target: Gal(a1-3)Gal(b1-4)[Fuc(a1-3)]GlcNAc
How it was run: as §1

[15] = molecular target: Gal(a1-3)Gal(b1-4)[Fuc(a1-3)]GlcNAc(b1-2)Man(a1-3)[Gal(a1-3)Gal(b1-4)[Fuc(a1-3)]GlcNAc(b1-2)Man(a1-6)]Man(b1-4)GlcNAc(b1-4)GlcNAc
How it was run: as §1

Gal(a1-3)GalNAc = molecular target: Gal(a1-3)GalNAc
How it was run: as §1

[16] = molecular target: Gal(a1-3)[Gal(a1-4)]Gal(b1-4)GlcNAc
How it was run: as §1

[17] = molecular target: Gal(a1-4)Gal(b1-3)GlcNAc(b1-2)Man(a1-3)[Gal(a1-4)Gal(b1-3)GlcNAc(b1-2)Man(a1-6)]Man(b1-4)GlcNAc(b1-4)GlcNAc
How it was run: as §1

Gal(a1-4)Gal(b1-4)Glc = molecular target: Gal(a1-4)Gal(b1-4)Glc
How it was run: as §1

Gal(a1-4)Gal(b1-4)GlcNAc = molecular target: Gal(a1-4)Gal(b1-4)GlcNAc
How it was run: as §1

[18] = molecular target: Gal(a1-4)Gal(b1-4)GlcNAc(b1-2)Man(a1-3)[Gal(a1-4)Gal(b1-4)GlcNAc(b1-2)Man(a1-6)]Man(b1-4)GlcNAc(b1-4)GlcNAc
How it was run: as §1

[19] = molecular target: Gal(a1-4)Gal(b1-4)GlcNAc(b1-3)Gal(b1-4)Glc
How it was run: as §1

Gal(a1-4)GlcNAc = molecular target: Gal(a1-4)GlcNAc
How it was run: as §1

Gal(a1-6)Glc = molecular target: Gal(a1-6)Glc
How it was run: as §1

Gal(b1-2)Gal = molecular target: Gal(b1-2)Gal
How it was run: as §1

Gal(b1-3)Gal = molecular target: Gal(b1-3)Gal
How it was run: as §1

Gal(b1-3)Gal(b1-4)GlcNAc = molecular target: Gal(b1-3)Gal(b1-4)GlcNAc
How it was run: as §1

Gal(b1-3)GalNAc = molecular target: Gal(b1-3)GalNAc
How it was run: as §1

[20] = molecular target: Gal(b1-3)GalNAc(a1-3)[Fuc(a1-2)]Gal(b1-4)Glc
How it was run: as §1

[21] = molecular target: Gal(b1-3)GalNAc(a1-3)[Fuc(a1-2)]Gal(b1-4)GlcNAc
How it was run: as §1

Gal(b1-3)GalNAc(b1-3)Gal = molecular target: Gal(b1-3)GalNAc(b1-3)Gal
How it was run: as §1

[22] = molecular target: Gal(b1-3)GalNAc(b1-3)Gal(a1-4)Gal(b1-4)Glc
How it was run: as §1

[23] = molecular target: Gal(b1-3)GalNAc(b1-4)Gal(b1-4)Glc
How it was run: as §1

[24] = molecular target: Gal(b1-3)GalNAc(b1-4)[Neu5Ac(a2-3)]Gal(b1-4)Glc
How it was run: as §1

Gal(b1-3)GlcNAc = molecular target: Gal(b1-3)GlcNAc
How it was run: as §1

[25] = molecular target: Gal(b1-3)GlcNAc(a1-3)Gal(b1-4)GlcNAc
How it was run: as §1

[26] = molecular target: Gal(b1-3)GlcNAc(a1-6)Gal(b1-4)GlcNAc
How it was run: as §1

Gal(b1-3)GlcNAc(b1-2)Man = molecular target: Gal(b1-3)GlcNAc(b1-2)Man
How it was run: as §1

B1: HA-11100 (Pseudomonas aeruginosa), Q02G51_PSEAB (protein)
chain: QFNPNEIKISQQGKTTLIDQSTQRAIINWKGFDVSADEAVRFNQPGVTSSTLNRVTAGQESVIAGRISAPGQVIIYNSNGVVFSGSAKVDVGSLITTTANISDEHFRQGKLIFDQPGNPDARIVNDGSISVAEKGLAAFVAPSVANNGVINARLGTVAMAAGNAATIDLYG
[1]
  glycan array binding signal (z-score): -0.404
[2]
  glycan array binding signal (z-score): -0.228
[3]
  glycan array binding signal (z-score): -0.403
[4]
  glycan array binding signal (z-score): -0.304
Fuc(a1-4)GlcNAc
  glycan array binding signal (z-score): 0.022
Fuc(b1-3)GlcNAc
  glycan array binding signal (z-score): -0.404
Gal(a1-2)Gal
  glycan array binding signal (z-score): -0.035
Gal(a1-3)Gal
  glycan array binding signal (z-score): -0.507
Gal(a1-3)Gal(b1-3)GlcNAc
  glycan array binding signal (z-score): -0.446
[5]
  glycan array binding signal (z-score): -0.356
[6]
  glycan array binding signal (z-score): 2.34
[7]
  glycan array binding signal (z-score): 0.037
[8]
  glycan array binding signal (z-score): -0.463
[9]
  glycan array binding signal (z-score): 1.87
Gal(a1-3)Gal(b1-4)Glc
  glycan array binding signal (z-score): 0.332
Gal(a1-3)Gal(b1-4)GlcNAc
  glycan array binding signal (z-score): -0.313
[10]
  glycan array binding signal (z-score): -0.276
[11]
  glycan array binding signal (z-score): 3.53
[12]
  glycan array binding signal (z-score): -0.163
[13]
  glycan array binding signal (z-score): 0.19
[14]
  glycan array binding signal (z-score): -0.245
[15]
  glycan array binding signal (z-score): 0.608
Gal(a1-3)GalNAc
  glycan array binding signal (z-score): -0.213
[16]
  glycan array binding signal (z-score): 0.081
[17]
  glycan array binding signal (z-score): 3.02
Gal(a1-4)Gal(b1-4)Glc
  glycan array binding signal (z-score): -0.019
Gal(a1-4)Gal(b1-4)GlcNAc
  glycan array binding signal (z-score): 0.223
[18]
  glycan array binding signal (z-score): 2.62
[19]
  glycan array binding signal (z-score): -0.459
Gal(a1-4)GlcNAc
  glycan array binding signal (z-score): 0.177
Gal(a1-6)Glc
  glycan array binding signal (z-score): 0.121
Gal(b1-2)Gal
  glycan array binding signal (z-score): -0.225
Gal(b1-3)Gal
  glycan array binding signal (z-score): -0.091
Gal(b1-3)Gal(b1-4)GlcNAc
  glycan array binding signal (z-score): -0.039
Gal(b1-3)GalNAc
  glycan array binding signal (z-score): -0.172
[20]
  glycan array binding signal (z-score): -0.071
[21]
  glycan array binding signal (z-score): -0.027
Gal(b1-3)GalNAc(b1-3)Gal
  glycan array binding signal (z-score): -0.426
[22]
  glycan array binding signal (z-score): 0.18
[23]
  glycan array binding signal (z-score): -0.029
[24]
  glycan array binding signal (z-score): -0.426
Gal(b1-3)GlcNAc
  glycan array binding signal (z-score): -0.239
[25]
  glycan array binding signal (z-score): -0.369
[26]
  glycan array binding signal (z-score): -0.297
Gal(b1-3)GlcNAc(b1-2)Man
  glycan array binding signal (z-score): 1.26
